From ChEMBL document CHEMBL4888484, “Replenishing the malaria drug discovery pipeline: Screening and hit evaluation of the MMV Hit Generation Library 1 (HGL1) against asexual blood stage Plasmodium falciparum ,using a nano luciferase reporter read-out” (2022) come the findings set out here.

Hit rate of the full screen: of about 150,000 compounds, about 540 (0.36%) showed an effect of 50% or more. Some of the results follow.

For orientation: % Inhibition means the drop in the measured response relative to a control, in per cent.

The test system of the experiment is Plasmodium falciparum. As to the kind of experiment: Primary screen in NF54 nanoGlo assay, in single point, at 2uM, 72h; a lower Z score goes with more inhibition. Particulars: timepoint 72 hour. The experiment is classed as functional, Erythrocyte.
In the case of `COc1ccc(OCc2cc(C(=O)NCCc3cn[nH]c3)n[nH]2)c(Cl)c1`, the “% Inhibition” value is reported as -13% and the Z score came to 1.84.
For `CC(C)CN1CC(=O)N(CCCS(C)(=O)=O)C1=O` the same measures were 0% and -0.03.
Take `COc1cncc(C(NC(=O)c2nnc3n2CCCC3)[C@H]2C[C@@H](O)C2)c1` (some centres undefined): the “% Inhibition” value is given as -15% and the Z score was determined as 2.01.
Take `CC(=O)c1ccccc1C(=O)N1CCC2(CC1)c1nc[nH]c1CCN2C(C)=O`: the “% Inhibition” value was -7% and the Z score came to 0.89.
Take `O=S(=O)(Nc1cnccc1N1CCCCC1)c1cccs1`: the “% Inhibition” value was -10% and the Z score amounted to 1.17.
For the molecule `CCCC(=O)N1CCC(OC(=O)CC2CCC3(CC2)OCCO3)CC1`, the “% Inhibition” value was -5% and the Z score came out at 0.66.
For `COc1ccc(CCN(CCC(=O)Nc2nnc(-c3ccc(C)cc3)s2)C(=O)COCc2ccccc2)cc1OC` the same measures were -9% and 1.5.
As to `Cc1ccc(C(=O)N[C@@H]2CCNC(=O)CC2)cc1F`, the “% Inhibition” value came out at 4% and the Z score was -0.84.
For `COc1cccc(CN2CCN(Cc3ccccn3)[C@H]3CS(=O)(=O)C[C@H]32)c1` the same measures were 1% and -0.17.
Take `CCOc1ccc(-c2csc(C)n2)cc1S(=O)(=O)N1CCN(C)CC1`: the “% Inhibition” value is 1% and the Z score is -0.07.
In the same order, the values of `N#Cc1ccc(N2CCC[C@@]3(CCC(=O)N(CCc4ccccn4)C3)C2)nc1` are 17% and -2.25.
For `O=C(C[C@H]1COc2ccc(Cl)cc2N1Cc1ccccc1)NCCCc1ccccc1` the same measures were -8% and 1.04.
With `CCCOc1ccc(-n2ccc(-c3cnccn3)n2)cc1CO`, the “% Inhibition” value was found to be 2% and the Z score is listed as -0.3.
For `CC1(C)CCCN1Cc1cn(C2CCN(C(=O)[C@H]3CC34CCC4)CC2)nn1` the same measures were -11% and 1.45.
With `CC1CN(CC2CCOC2)CCC1(F)F` (centres undefined), the “% Inhibition” value was -15% and the Z score was found to be 2.14.
In the same order, the values of `Cc1cc(NC(=O)c2cc(OCc3ccccc3)ncn2)[nH]n1` are 4% and -0.81.
For `COc1ccc(NC(=O)c2ccc(NC(=O)CCc3c(C)noc3C)cc2)cc1` the same measures were -9% and 1.25.
For `Cc1ccc(Cl)c(Oc2cc(N(C)Cc3ccccc3)ncn2)c1` the same measures were -13% and 1.51.
For the molecule `CNc1nc(C(=O)N2CCC[C@@](O)(CO)C2)cs1`, the “% Inhibition” value is on record as -6% and the Z score is recorded as 0.81.
For `Cc1cccc(OC2CCN(C(=O)c3cnn4ccccc34)CC2)c1` the same measures were -5% and 0.49.
Turning to `CN1CCN(CC(=O)NCCc2csc(-c3ncccn3)n2)C1=O`, the “% Inhibition” value was -13% and the Z score was 2.
For `C=CCOc1ccccc1CN(CC)C[C@H](O)CO`, the “% Inhibition” value was -2% and the Z score came out at 0.3.
As for `CC(C)NC(=O)c1ncc2c(n1)CN(C(=O)OC(C)(C)C)C2`, the “% Inhibition” value is 0% and the Z score is listed as 0.02.
As for `COCc1nc(C(=O)NC[C@@H]2OCCc3sc(F)cc32)no1`, the “% Inhibition” value is on record as -7% and the Z score was 1.44.
For `CNC(=O)c1cc(S(=O)(=O)N(C)c2ccc(O)c(C)c2)cn1C` the same measures were -10% and 1.3.
For `CCOc1ccccc1CNC(=O)CC1CCN(S(=O)(=O)c2ccccc2)CC1` the same measures were -4% and 0.71.
For `CC1CCN(CC(O)CN2CCOCC2)c2ccccc21` (centres undefined) the same measures were -2% and 0.34.
As for `COc1ccc2[nH]cc(C[C@@H](CN)c3ccccc3)c2c1`, the “% Inhibition” value is given as -2% and the Z score is on record as 0.28.
For `CN(C)C(=O)[C@H](CNC(=O)OC(C)(C)C)c1ccccc1` the same measures were -5% and 0.46.
`CCc1ccc([C@@H]2COCCN2Cc2nnnn2-c2ccccc2)o1`: the “% Inhibition” value is listed as 4% and the Z score is on record as -0.41.
Consider `C#CCOc1cccc(COC(=O)c2ccnc(C3CC3)n2)c1`, for which the “% Inhibition” value is recorded as -8% and the Z score is recorded as 0.98.
In the same order, the values of `COc1c2c(cc3c1[C@@H](C#CCOc1ccccc1)[N+](C)(C)CC3)OCO2` are 64% and -13.6.
For `C=CCC(NCC(C)CCc1ccccc1)C(=O)O` (centres undefined) the same measures were -7% and 1.02.
In the case of `Cc1cc(C)n(-c2nnc(-c3ccccc3)c(-c3ccccc3)n2)n1`, the “% Inhibition” value was 38% and the Z score is given as -0.97.
In the same order, the values of `Cc1cc(NC(=O)c2oc(CC3CC3)nc2C)ccc1F` are -3% and 0.28.
Turning to `CS(=O)(=O)N1C[C@H]2CN(Cc3ccccc3Cl)CC[C@@]2(CO)C1`, the “% Inhibition” value is recorded as -5% and the Z score is on record as 0.56.
For `CCc1cccnc1C(=O)NCCOC1CCCCCC1` the same measures were 6% and -0.77.
In the same order, the values of `Cc1c(S(=O)(=O)NCc2ccn(C3CCCC3)n2)c2ccccc2n1C` are -5% and 0.93.
For `C[C@]1(Cc2ccc3c(c2)OCO3)CCCN(C(=O)Cn2ccnc2)C1` the same measures were -8% and 0.87.
`CCCc1nnsc1C(=O)NCc1cc(C(C)(C)C)n[nH]1`: the “% Inhibition” value was -14% and the Z score is on record as 1.49.
In the case of `Cc1ccc(NC(=O)c2cnc(-c3cnn(C)c3)s2)c(C)n1`, the “% Inhibition” value is 31% and the Z score is reported as -3.99.
For `COc1ccccc1C1CC1C(=O)NC1CCCCC1C(F)(F)F` (centres undefined) the same measures were 5% and -0.89.
In the same order, the values of `Cc1cc(C(=O)Nc2sc3c(c2C#N)CCCC3)cs1` are -10% and 0.95.
`COc1ccccc1OCCN1CCC[C@H](c2nnc3n2CCC3)C1`: the “% Inhibition” value is listed as -7% and the Z score worked out at 0.99.
For `COc1ccccc1-c1nc(S(=O)(=O)c2ccc3c(c2)OCCO3)c(NCc2cccnc2)o1` the same measures were -11% and 1.49.
Regarding `O=C(Nc1nc(C(=O)NCCc2ccccn2)cs1)c1ccc(Cl)c(Cl)c1`, the “% Inhibition” value is on record as -19% and the Z score was 1.78.
As for `N#Cc1ccc(-c2nc(-c3ccc4c(c3)ncn4CCN3CCOCC3)no2)cc1`, the “% Inhibition” value is 2% and the Z score is -0.37.
Take `O=C(Nc1cnccc1-c1ccccc1)c1ccccc1F`: the “% Inhibition” value was determined as 3% and the Z score was -0.49.
In the same order, the values of `CN(C(=O)c1n[nH]c2c1CCCC2)[C@H]1CS(=O)(=O)C[C@@H]1O` are -4% and 0.74.
In the case of `CN(C)c1ncccc1N(C)S(=O)(=O)c1cnn(C)c1`, the “% Inhibition” value is -4% and the Z score worked out at 0.45.
In the same order, the values of `O=C(Nc1ccc(Cl)cc1F)c1csc(-c2ccc(N3CCCC3)nc2)n1` are -9% and 1.51.
In the same order, the values of `C[C@@H](Cc1ccc(Cl)cc1Cl)C(=O)NCC#N` are -7% and 1.19.
In the same order, the values of `CCCC(=O)N1CCC(N2C(=O)CC[C@H]2C(=O)NCc2ccccc2)CC1` are -8% and 1.38.
Regarding `Cc1nc2ccc(NCc3cnc(-c4ccccn4)s3)cc2o1`, the “% Inhibition” value is reported as -7% and the Z score was found to be 0.98.
Regarding `COc1ccc(OCc2nc(C(=O)N3CCN4CCNC(=O)[C@@H]4C3)co2)cc1`, the “% Inhibition” value is -7% and the Z score worked out at 1.2.
For `C[C@H]1CNCCN1C(=O)CCn1nnc2ccccc2c1=O` the same measures were -11% and 1.43.
In the same order, the values of `O=C(Nc1c(-c2ccc(C(F)(F)F)cc2)n[nH]c1C1CC1)c1cccc(Cl)c1` are -6% and 0.76.
As to `Cc1ccc2nc(NC(=O)CC3CCCCC3)sc2c1`, the “% Inhibition” value was -6% and the Z score stood at 1.21.
For `CC(C)(CC(=O)NCc1cccc(CO)n1)Cc1ccc(Cl)cc1` the same measures were 8% and -1.49.
Turning to `Cc1noc(C)c1CS(=O)(=O)Cc1cn2ccccc2n1`, the “% Inhibition” value is recorded as -7% and the Z score was 1.24.
Consider `c1cncc(-c2noc(-c3cccnc3)n2)c1`, for which the “% Inhibition” value is listed as -2% and the Z score is reported as 0.25.
For `Cc1nnc(CC(=O)N2CCO[C@H](C(C)C)C2)o1` the same measures were -5% and 0.99.
On to `COCC(=O)N(Cc1cccc(OS(C)(=O)=O)c1)CC1CC1`, for which the “% Inhibition” value is reported as -13% and the Z score is reported as 1.29.
In the same order, the values of `c1ccc(COc2ccc(-c3cnc4nncn4c3)cc2)cc1` are -10% and 1.31.
For `O=C(O)Cn1nc(-c2ccco2)nc1CCN1CCCCCCC1`, the “% Inhibition” value is listed as -11% and the Z score is 1.92.
For `CCC(CO)NC(C)c1ccccc1OC` (centres undefined) the same measures were -12% and 1.44.
With `CCN=C(NCC#Cc1ccccc1)NCCN1CCC(OC)CC1`, the “% Inhibition” value is listed as -3% and the Z score was found to be 0.31.
For `NC(=O)c1ccc(CC2CCN(C(=O)c3cccs3)CC2)cc1` the same measures were 4% and -0.46.
On to `CCN(C(=O)N[C@@H](C)c1noc(C)n1)C(C)C`, for which the “% Inhibition” value is -7% and the Z score worked out at 0.93.
Regarding `CCc1nc2c(c(O[C@H]3CCCN(Cc4ccccc4Cl)C3)n1)CCOCC2`, the “% Inhibition” value is -12% and the Z score was determined as 1.87.
As to `CN(C)C(=O)[C@H]1CC(=O)N(C2CCCCCC2)C1`, the “% Inhibition” value amounted to 6% and the Z score was -1.12.
In the same order, the values of `C[C@H](NC(=O)Nc1cccc(F)c1F)C(=O)OC1CCCC1` are -13% and 2.49.
Take `CC1CN(CCC(=O)NC2CC2)C(C)CO1` (centres undefined): the “% Inhibition” value was -42% and the Z score amounted to 4.94.
`CCCc1cc(N[C@@H](C)C(=O)N(C)C)nc(C)n1`: the “% Inhibition” value came to 2% and the Z score is -0.39.
Turning to `COc1ccc2c(N3CCN(C(=O)CCc4ccc(-c5ccc(C)cc5)o4)CC3)nsc2c1`, the “% Inhibition” value is 32% and the Z score was -3.62.
In the same order, the values of `Cc1cnc(CN2CC3(CCC2=O)CCN(C(=O)c2ccc(N)nc2)CC3)cn1` are -8% and 0.98.
Take `COCc1cc(N2CCC(c3[nH]ncc3Cc3ccccc3)CC2)ncn1`: the “% Inhibition” value is listed as -13% and the Z score is 1.29.
In the case of `CCCN1C[C@@H]2CC[C@H]1CN(S(=O)(=O)c1ccc(C)c(F)c1)C2`, the “% Inhibition” value is given as -11% and the Z score worked out at 1.41.
On to `Cc1nccn1CCn1ncn2cccc2c1=O`, for which the “% Inhibition” value is reported as -8% and the Z score is recorded as 1.08.
For `CCOC(=O)COc1c(C)cc(N)cc1C` the same measures were -8% and 1.06.
Take `Cc1ccccc1Cc1sc(NC(=O)CCc2nnc[nH]2)nc1C`: the “% Inhibition” value is recorded as -10% and the Z score was 1.13.
In the same order, the values of `CC(C)(C)OC(=O)N1CC(O)C(C#N)C1` (centres undefined) are 15% and -1.8.
As for `CCn1c(CN2CCc3[nH]nc(CC4CCCC4)c3C2)nc2ccccc21`, the “% Inhibition” value was 7% and the Z score was -0.63.
With `CC1CC(C)CN(CCCN2C(=O)c3nc4ccccc4n3CC2(C)C(=O)NC2CCCCCC2)C1` (centres undefined), the “% Inhibition” value is -9% and the Z score stood at 0.84.
In the case of `CCCNC(=O)Cn1c(-c2ccco2)nn(-c2ccc(Cl)cc2)c1=O`, the “% Inhibition” value was -10% and the Z score is reported as 1.47.
For `O=S(=O)(c1cccnc1)N1C2CCC1CC(Oc1cccnc1)C2` (centres undefined) the same measures were -14% and 1.62.
In the same order, the values of `CCc1cnc(CCNC(=O)N(C)Cc2cc3ccccc3o2)s1` are -9% and 0.93.
